# Measured values: the supplement of paper PMC11417369
# Some of the results follow.
# Test system: PfHDP1 homeodomain (GST-tagged)
# Assay: gcPBM binding intensity (ln(normalized median fluorescence intensity)); higher = stronger DNA binding
# Procedure, shortened: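 The binding buffer was 1× PBS containing 1% milk, 0.2 mg/ml BSA, 0.5% salmon testes DNA and 0.03% Triton X-100. In it, GST-tagged P. falciparum DNA-binding domains expressed in E. coli were applied for 1 h to an Agilent 4 × 180k array of primer-extended double-stranded 36-bp intergenic genomic probes plus negative controls. Binding intensity, read with Alexa488 anti-GST antibody and a 488 nm scan, is the highest Masliner-normalised natural-log median intensity across replicate spots of either probe orientation.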
row,Sequence,gcPBM binding intensity (ln)
1,ATTTATTTATTTAGCTGTACATTTATACAGAACGAT [XGTACX_site3336],6.3
2,TAACAATATCTAGATACACACACATATCTCTCAATC [CACACA_site8122],6.7
3,AAAATGAATAAAAATACACACATATATGTTATTCTC [CACACA_site2671],6.44
4,TGATTCATTGATAAGGGTACATTTATAATTATGATA [XGTACX_site6319],6.02
5,ACGTATCAATTTATTGGTACACATAAATATATATAT [XGTACX_site5556],8.13
6,ACATTGAACAAAATAGTAAGCACATATATATATATA [GTGCAC_negctrl_site679],9.2
7,AAACATATATTAAGCACACACAAACAAAAAAACAAA [CACACA_site2549],7.2
8,TTTTCATACACTGCTAGTATATACTACCACTGACAT [GTGCAC_negctrl_site514],7.49
9,ACACATAATATAAAGGTGCTATATTGTATTCATTTT [GTGCAC_site9457],6.52
10,ATATATTATATAAAAAGTACTAAAATAGTAAGATGT [XGTACX_site7493],7.23
11,TATTCATTAAACCATACACACATAATTTTTTTATAA [CACACA_site4618],6.56
12,GTGTGCCAAATTAGCACACACATATATACATGAATT [CACACA_site7346],7.57
13,AATGATTTTAAATGAACATAATTTATATTCATAACA [GTGCAC_negctrl_site256],6.13
14,ATCATTTTGTGTTCAAGTACATAATGTTTTACACAA [XGTACX_site3565],6.32
15,AACGAAGCATAAAATGTTATGTATATATATAAATAT [TGCATGCA_negctrl_site304],6.47
16,TACCAAAAAAAAAAAATAATAATAAAAAAAAAAAAA [TGCATGCA_negctrl_site11],6.07
17,GCAAAACATTTTTAAAATAAAAATAATAAAATATAT [CACACA_negctrl_site219],6.37
18,CATACATTATAAGATACATGCATATATCTGAACATA [TGCATGCA_site797],6.49
19,ATGTGGAAATAGAGCACACATATATATAATATATAT [CACACA_site884],6.9
20,AAAAAATATAAATATGTAAAAAGAGAAAAAAAAAAG [GTGCAC_negctrl_site9],6.51
21,TGAAAATGGGAACCGTGTACAGGGCAGTTATAGGGG [XGTACX_site2950],7.09
22,ATATTTAATTCATCATGTACACAAATAAGAAACAAA [XGTACX_site8076],7.15
23,TATAAACATAAAACCAGTACATATATATTTTTCTTC [XGTACX_site212],6.21
24,TTATGAAAATATTTTTTTCGTTTGATGTATATGTTT [CACACA_negctrl_site1556],6.22
